From ChEMBL document CHEMBL4888484, “Replenishing the malaria drug discovery pipeline: Screening and hit evaluation of the MMV Hit Generation Library 1 (HGL1) against asexual blood stage Plasmodium falciparum ,using a nano luciferase reporter read-out” (2022) come the findings set out here.

SMILES strings stand for the structures. About 540 (0.36%) of roughly 150,000 compounds showed an effect of 50% or more. Some of the results follow.

This test concerns Plasmodium falciparum. Description: Primary screen in NF54 nanoGlo assay, in single point, at 2uM, 72h; a lower Z score goes with more inhibition. The class given is functional, Erythrocyte. The settings on record: timepoint 72 hour.
The term % Inhibition denotes the relative decrease from the control value, in per cent. Take `CCn1cc(-c2nc(C(=O)NCc3ccccc3F)cs2)c2cccnc21`: the “% Inhibition” value is reported as -6% and the Z score was 1.09.

Consider `CN(Cc1cnc2ccccc2n1)C(=O)c1ccc(N2CC(=O)NC2=O)cc1`, for which the “% Inhibition” value is given as -8% and the Z score is recorded as 1.34.

Turning to `Cc1cccnc1CNC[C@H]1Cn2c(-c3ccc(Cl)cc3)cnc2CO1`, the “% Inhibition” value is 6% and the Z score is recorded as -0.85.

On to `C=CCN1CCN(C(=O)CCn2ccn3nc(-c4ccc(C(C)C)cc4)cc3c2=O)CC1`, for which the “% Inhibition” value is -5% and the Z score is recorded as 0.61.

For the compound `NC(=O)[C@@H]1CN(Cc2nnc(C3CCC3)o2)c2ccccc2N1Cc1nnc(C2CCC2)o1`, the “% Inhibition” value is reported as 8% and the Z score is reported as -1.11.

In the case of `CC(C)(C)c1ccc(C(=O)C(=O)N2CCC(C(=O)NC3CC3)CC2)cc1`, the “% Inhibition” value is -7% and the Z score came to 1.06.

Consider `Cc1ccc(C(NC(=O)N2CCCN3CCCC3C2)C(C)(C)C)o1` (centres undefined), for which the “% Inhibition” value is recorded as -14% and the Z score turned out to be 1.28.

For `COc1ccc(-c2nccnc2N2CCCC2)c(OC)c1`, the “% Inhibition” value is -14% and the Z score is given as 1.4.

`Fc1ccc(Nc2nc(OC(C(F)(F)F)C(F)(F)F)nc(N3CCCCCC3)n2)cc1`: the “% Inhibition” value came to 29% and the Z score stood at 0.03.

`CC(=O)c1ccc(-n2cnnc2CCc2c(C)n[nH]c2C)cc1`: the “% Inhibition” value came out at 5% and the Z score is -0.99.

In the case of `COCCc1nsc(NCc2cc(Br)cc3c2OCC3)n1`, the “% Inhibition” value is 0% and the Z score was determined as 0.07.

With `Cn1cc(Cc2noc(C3CCC(F)(F)CC3)n2)nn1`, the “% Inhibition” value is recorded as 0% and the Z score is -0.01.

On to `O=C(NCc1cc[nH]n1)C(=O)Nc1ccc(Br)cc1Cl`, for which the “% Inhibition” value is -4% and the Z score stood at 0.63.

In the case of `CC[C@@H](COCC(F)(F)F)NC(=O)c1ccn(C(C)C)n1`, the “% Inhibition” value is -15% and the Z score amounted to 2.69.

In the case of `Cc1cc(NCc2cccnc2N)nc(C2CC2)n1`, the “% Inhibition” value worked out at 4% and the Z score is on record as -0.72.

For `Cc1cnc(C(=O)Nc2nnc(C(F)(F)F)[nH]2)cn1`, the “% Inhibition” value is -4% and the Z score amounted to 0.81.

Turning to `CC(=O)N1CCCN(C(=O)CCn2cnc3ccccc3c2=O)CC1`, the “% Inhibition” value is recorded as -13% and the Z score is on record as 1.94.

For the compound `CC(C)Oc1cccc(C(=O)N(C)C[C@H]2CCCN2C)n1`, the “% Inhibition” value is 0% and the Z score came to 0.04.

For the compound `CC(C)C(=O)N(Cc1ccc(-c2ccc(Cl)c(Cl)c2)o1)[C@H]1CCS(=O)(=O)C1`, the “% Inhibition” value was -5% and the Z score came out at 0.61.

`COc1cc(OCC(=O)NC(C2CC2)C2CC2)ccc1C#N`: the “% Inhibition” value is 7% and the Z score is on record as -0.84.

As to `CN(CCN1CCOC(C)(C)C1)c1ccc(C#N)cn1`, the “% Inhibition” value is -6% and the Z score was determined as 1.1.

With `CN(Cc1ccco1)CC1(CN(C)Cc2ccco2)COC1`, the “% Inhibition” value is -12% and the Z score came out at 1.64.

For the compound `COc1cccc(S(=O)(=O)N2CCC(c3noc(COCC4CC4)n3)CC2)c1`, the “% Inhibition” value was determined as 2% and the Z score was -0.25.

On to `Cc1nc(-c2c3n(c(=O)n(CC(=O)NCc4ccc(F)cc4)c2=O)CCCC3)no1`, for which the “% Inhibition” value was determined as 4% and the Z score is on record as -0.46.

On to `CCc1ccc(N2C[C@@H](c3nnc(NC(=O)C(C)(C)C)s3)CC2=O)cc1`, for which the “% Inhibition” value is given as -7% and the Z score was determined as 0.97.

`c1ccc(CCn2cc(C3CC3)nn2)nc1`: the “% Inhibition” value was -9% and the Z score is 1.74.

With `CCOC(=O)[C@H](NC(=O)c1ccccc1)c1nnc(-c2ccc(F)cc2)o1`, the “% Inhibition” value is reported as -7% and the Z score came to 1.06.

Take `COCC(=O)N[C@@H]1CC[C@H]2CCOc3ccccc3C(=O)N3CCN(C4CCCCC4)C[C@H]3C(=O)NC[C@H]1O2`: the “% Inhibition” value is recorded as -6% and the Z score was 0.79.

Take `CO[C@H]1C[C@H]2CN(C(=O)CCc3c(C)noc3C)[C@@H](Cc3ccccc3)C(=O)N2C1`: the “% Inhibition” value was -15% and the Z score came out at 2.1.

In the case of `COCc1csc(NC(=O)C(=O)NCc2ccc(C)cc2C)n1`, the “% Inhibition” value is reported as 3% and the Z score is recorded as -0.47.

Take `O=C(NCCc1ccc(Cl)cc1)c1ccc(Oc2ccnc(-c3cccc(F)c3)n2)cc1`: the “% Inhibition” value is reported as 2% and the Z score is on record as -0.25.

For `Cc1cn(-c2nc(-c3ccccc3)sc2-c2ccccc2)c(=O)nc1O`, the “% Inhibition” value was -28% and the Z score amounted to 3.3.

Take `COc1ccc(-c2nnc3n2CCOC3)cc1OC`: the “% Inhibition” value turned out to be 4% and the Z score is on record as -0.83.

With `CCOCc1nc([C@@H]2CCCN2S(=O)(=O)c2cc(OC)ccc2OC)no1`, the “% Inhibition” value is listed as -5% and the Z score is 0.63.

Regarding `Cc1nnsc1C(=O)N1CCN(c2ncccn2)[C@H]2CS(=O)(=O)C[C@H]21`, the “% Inhibition” value turned out to be 1% and the Z score was -0.16.

As for `NC(=O)[C@@H]1CCCN1Cc1cc(O)c2cccc(F)c2n1`, the “% Inhibition” value amounted to 0% and the Z score is given as -0.09.

For `Cc1ccc(Cc2nc(N3CCN(C(=O)c4ccc(F)cc4)CC3)c3c(C)nn(-c4ccccc4)c3n2)cc1`, the “% Inhibition” value was -4% and the Z score came out at 0.45.

`CC1(C)C2CCC1(C(=O)Nc1ccccc1)C(=O)C2=O` (centres undefined): the “% Inhibition” value is -17% and the Z score is 3.24.

Regarding `C[C@@H]1C[C@H](Nc2ccccc2)c2ccccc2N1`, the “% Inhibition” value is reported as -8% and the Z score came out at 1.59.

For `O=C(Oc1ccc(-c2ccccc2)cc1)[C@H]1CC(=O)N(c2ccc(F)cc2)C1`, the “% Inhibition” value was -2% and the Z score worked out at 0.25.

For the compound `Cn1cc(CCC(=O)Nc2cc(C3CCCCCC3)[nH]n2)cn1`, the “% Inhibition” value is given as -14% and the Z score was 2.7.

With `C#CCN(C1CCCCC1)S(=O)(=O)N1CCCC1`, the “% Inhibition” value is on record as -5% and the Z score stood at 0.49.
